Experimental data taken from PubChem BioAssay (Tox21).
The inconclusive results got no clear call from the source; some entries with a clear call stand among them for comparison. For some of these results: A potency beside an inconclusive call is a rough fit, not a confirmed value. The source made the active and inactive calls. Unless noted, the call rests on the fitted dose curve; in most records, active means well fitted curve in the direction sought with a large enough effect in the repeat runs; inconclusive means weak or mixed curves; inactive means no such curve, though single readings can be large; an effect the other way counts as inactive or inconclusive.

Legend:
[1] = biological target: Peroxisome proliferator-activated receptor gamma (Homo sapiens) (UniProt P37231); assay: qHTS assay to identify small molecule antagonists of the peroxisome proliferator-activated receptor gamma (PPARg) signaling pathway (AID 743191; calls by dose curve; further: nearly all actives have a fitted effect of over 30% in size; further: potency means the concentration at half of the fitted maximal effect; on ratio activity, negative = inhibition: on the % scale 0 is the no-effect control and ±100 the full control effect); conditions: HEK293H PPARg-UAS-bla, beta-lactamase ratio, antagonist, 17 h; ratio activity, negative = inhibition: at 62.6 µM (top of the series) unless noted
Summary of the method: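 GeneBLAzer PPARg UAS-bla HEK293H cells carrying a UAS-driven beta-lactamase reporter were plated at 3000 cells/well, preincubated 5 h at 37C, then given compound for 17 h at 37C; LiveBLAzer B/G FRET substrate was read after 1 h at room temperature.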

[2] = qHTS assay for small molecule agonists of the antioxidant response element (ARE) signaling pathway (AID 743202; active means well fitted activation curve with a large enough effect in the signal ratio in the repeat runs, not every such curve was filed as active; inconclusive means weak or mixed curves, or effect the other way; inactive means no such curve, though single readings can be large or run the other way; the % refers to the signal ratio; further: potency means the concentration at half of the fitted maximal effect; on activation: on the % scale 0 is the no-effect control and ±100 the full control effect); conditions: HepG2 ARE-bla reporter, beta-lactamase FRET, 16 h; activation: at 73.3 µM (top of the series) unless noted
Summary of the method: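 Read-out: LiveBLAzer B/G FRET substrate fluorescence after 2 h at room temperature, following 16 h compound treatment at 37 C of HepG2 cells carrying an ARE-driven beta-lactamase reporter.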

[3] = qHTS assay for small molecule agonists of the antioxidant response element (ARE) signaling pathway - cell viability counter screen (AID 743203; calls by dose curve; further: potency means the concentration at half of the fitted maximal effect; nearly all actives have a fitted effect of over 55% in size)
Summary of the method: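 ARE-bla HepG2 cells were plated, rested 5 h at 37C/5% CO2, then exposed to compounds in DMSO for 16 h. Viability was read as CellTiter-Glo luminescence after 30 min at room temperature, in the same wells as the ARE screen.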

[4] = qHTS assay to identify small molecule agonists of the peroxisome proliferator-activated receptor delta (PPARd) signaling pathway - cell viability counter screen (AID 743211); conditions: PPARd-bla HEK293H viability, CellTiter-Glo luminescence, 17 h; activity change, negative = cytotoxicity: at 62.6 µM (top of the series) unless noted; further: potency means the concentration at half of the fitted maximal effect; nearly all actives have a fitted effect of over 55% in size
Summary of the method: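 Read-out: CellTiter-Glo luminescence, 30 min RT, measured in the same wells as the beta-lactamase reporter. Cells: GeneBLAzer PPAR delta UAS-bla HEK293H, 3000 cells/well, compound exposure 17 h at 37C.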

[5] = qHTS assay to identify small molecule antagonists of the peroxisome proliferator-activated receptor delta (PPARd) signaling pathway - cell viability counter screen (AID 743213); conditions: PPARd-bla HEK293H viability, CellTiter-Glo luminescence, 17 h; viability change, negative = cytotoxic: at 62 µM (top of the series) unless noted; further: nearly all actives have a fitted effect of over 50% in size; further: potency means the concentration at half of the fitted maximal effect
Summary of the method: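 Luminescence from CellTiter-Glo, added after the bla read and incubated 30 min at room temperature, gives viability of HEK293H PPARd-bla cells exposed to compounds for 17 h at 37 C with 300 nM L165041.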

[6] = biological target: Vitamin D3 receptor (Homo sapiens) (UniProt P11473); assay: qHTS assay to identify small molecule agonists of the vitamin D receptor (VDR) signaling pathway (AID 743222; calls by dose curve; further: potency means the concentration at half of the fitted maximal effect); conditions: HEK293T VDR-UAS-bla, beta-lactamase FRET ratio, 16 h; activation: at 63.5 µM (top of the series) unless noted
Summary of the method: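 VDR-bla cells plated 4 h at 37 C, then exposed to compounds for 16 h at 37 C. Beta-lactamase reporter activity measured by fluorescence after 2 h room-temperature loading with LiveBLAzer B/G FRET substrate.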

[7] = biological target: Vitamin D3 receptor (Homo sapiens) (UniProt P11473); assay: qHTS assay to identify small molecule antagonists of the vitamin D receptor (VDR) signaling pathway (AID 743223; active means well fitted inhibition curve with a large enough effect in the signal ratio in the repeat runs, not every such curve was filed as active; inconclusive means weak or mixed curves, or effect the other way; inactive means no such curve, though single readings can be large or run the other way; the % refers to the signal ratio; further: potency means the concentration at half of the fitted maximal effect); conditions: VDR-UAS-bla HEK293T, beta-lactamase FRET ratio, 16 h; activity change, negative = inhibition: at 61 µM (top of the series) unless noted
Summary of the method: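 Beta-lactamase reporter read-out: FRET substrate fluorescence after 2 h at room temperature, following 16 h exposure of VDR-bla cells to test compound plus 3 nM (final) 1alpha,25-dihydroxyvitamin D3 agonist at 37C.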

[8] = qHTS assay to identify small molecule agonists of the vitamin D receptor (VDR) signaling pathway - cell viability counter screen (AID 743224); further: potency means the concentration at half of the fitted maximal effect; nearly all actives have a fitted effect of over 50% in size
Summary of the method: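 VDR-bla cells, 4 h after plating, exposed to compounds for 16 h at 37C; viability then read in the same wells as CellTiter-Glo luminescence after 30 min at room temperature, following the bla FRET read.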

[9] = qHTS assay to identify small molecule antagonists of the vitamin D receptor (VDR) signaling pathway - cell viability counter screen (AID 743225); conditions: VDR-bla HEK293T viability, CellTiter-Glo luminescence, 16 h; viability change, negative = cytotoxic: at 61 µM (top of the series) unless noted; further: potency means the concentration at half of the fitted maximal effect; nearly all actives have a fitted effect of over 50% in size
Summary of the method: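 Viability counter screen run in the same wells as the beta-lactamase reporter assay: HEK 293T VDR-UAS-bla cells, 16 h compound exposure at 37C with 3 nM (final) 1-alpha,25-dihydroxyvitamin D3. CellTiter-Glo luminescence, 30 min, room temperature.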

[10] = qHTS assay to identify small molecule agonists of the endoplasmic reticulum stress response signaling pathway (AID 1159516; active means well fitted activation curve with a large enough effect in the signal ratio in the repeat runs, not every such curve was filed as active; inconclusive means weak or mixed curves, or effect the other way; the % refers to the signal ratio; further: potency means the concentration at half of the fitted maximal effect); conditions: ESRE-bla HeLa, ER stress beta-lactamase reporter, 5 h; activation: at 61 µM (top of the series) unless noted
Summary of the method: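 CellSensor ESRE-bla HeLa cells, 1,500 per well, plated overnight, then exposed to compounds for 5 hr at 37 C. Beta-lactamase reporter read with LiveBLAzer B/G FRET substrate after 2 hr at room temperature, 405 nm excitation, 460 and 530 nm emission.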

[11] = qHTS assay to identify small molecule antagonists of the peroxisome proliferator-activated receptor gamma (PPARg) signaling pathway - cell viability counter screen (AID 743194); conditions: PPARg-bla HEK293H viability, CellTiter-Glo luminescence, 17 h; Potency: co-treated with 50 nM rosiglitazone unless noted; activity change, negative = cytotoxicity: at 62.6 µM (top of the series), co-treated with 50 nM rosiglitazone unless noted; further: potency means the concentration at half of the fitted maximal effect; nearly all actives have a fitted effect of over 55% in size
Summary of the method: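 PPARg-UAS-bla HEK293H cells were plated, rested 5 h at 37 C, then treated with compounds plus rosiglitazone (50 nM final) for 17 h at 37 C; viability was then read by CellTiter-Glo luminescence after 30 min at room temperature.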

[12] = qHTS assay to identify small molecule agonists of the farnesoid-X-receptor (FXR) signaling pathway - cell viability counter screen (AID 743218); conditions: FXR-bla HEK293T viability, CellTiter-Glo luminescence, 16 h; viability change, negative = cytotoxic: at 62.6 µM (top of the series) unless noted; further: potency means the concentration at half of the fitted maximal effect; nearly all actives have a fitted effect of over 45% in size
Summary of the method: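 FXR-UAS-bla HEK 293T cells exposed to compounds for 16 h at 37C. Cytotoxicity read in the same wells by CellTiter-Glo luminescence after 30 min at room temperature, following the beta-lactamase FRET read.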

[13] = qHTS assay for small molecule activators of the heat shock response signaling pathway (AID 743210; active means well fitted activation curve with a large enough effect in the signal ratio in the repeat runs, with a control signal flat, not every such curve was filed as active; inconclusive means weak or mixed curves; the % refers to the signal ratio; further: potency means the concentration at half of the fitted maximal effect); conditions: HeLa HSE-bla reporter, beta-lactamase ratio, 5 h; activation: at 62.6 µM (top of the series)
Summary of the method: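 HSE-bla HeLa cells (beta-lactamase reporter under heat shock response elements) were exposed to compounds for 5 h at 37 C, then loaded with LiveBLAzer B/G FRET substrate for 2.5 h at room temperature before fluorescence reading.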

[14] = biological target: Peroxisome proliferator-activated receptor delta (Homo sapiens) (UniProt Q03181); assay: qHTS assay to identify small molecule agonists of the peroxisome proliferator-activated receptor delta (PPARd) signaling pathway (AID 743212; calls by dose curve; further: potency means the concentration at half of the fitted maximal effect); conditions: HEK293H PPARd-UAS-bla, beta-lactamase FRET ratio, 17 h; activation: at 62.6 µM (top of the series) unless noted
Summary of the method: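 GeneBLAzer PPARd UAS-bla HEK293H cells (beta-lactamase reporter under UAS control), plated and rested 5 h at 37 C, then exposed to compounds in DMSO at 37 C; LiveBLAzer B/G FRET substrate added, 2 h room temperature, fluorescence read.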

[15] = biological target: Peroxisome proliferator-activated receptor delta (Homo sapiens) (UniProt Q03181); assay: qHTS assay to identify small molecule antagonists of the peroxisome proliferator-activated receptor delta (PPARd) signaling pathway (AID 743215; active means well fitted inhibition curve with a large enough effect in the signal ratio in the repeat runs, not every such curve was filed as active; inconclusive means weak or mixed curves, or effect the other way; inactive means no such curve, though single readings can be large or run the other way; the % refers to the signal ratio;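 further: cells stimulated with agonist L165041 at 300 nM final during compound exposure; on the % scale 0 is the no-effect control and ±100 the full control effect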); conditions: HEK293H PPARd-UAS-bla, beta-lactamase FRET ratio, antagonist, 17 h; ratio activity, negative = inhibition: at 62 µM (top of the series) unless noted
Summary of the method: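 PPARd-bla HEK293H cells (UAS-bla reporter) preincubated 5 h, then given compound plus 300 nM final L165041 agonist for 17 h at 37 C. Beta-lactamase activity read by LiveBLAzer B/G FRET substrate fluorescence after 2 h at room temperature.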

[16] = biological target: Bile acid receptor (Homo sapiens) (UniProt Q96RI1); assay: qHTS assay to identify small molecule antagonists of the farnesoid-X-receptor (FXR) signaling pathway (AID 743217; active means well fitted inhibition curve with a large enough effect in the signal ratio in the repeat runs, not every such curve was filed as active; inconclusive means weak or mixed curves, or effect the other way; inactive means no such curve, though single readings can be large or run the other way; the % refers to the signal ratio; further: on the % scale 0 is the no-effect control and ±100 the full control effect); conditions: HEK293T FXR-UAS-bla, beta-lactamase ratio, CDCA-stimulated, 16 h; activity change, negative = inhibition: at 62.6 µM (top of the series) unless noted
Summary of the method: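 FXR-UAS-bla HEK 293T cells (beta-lactamase reporter) given compound plus chenodeoxycholic acid (50 uM final), 16 h at 37C. LiveBLAzer B/G FRET substrate added for 2 h at room temperature; fluorescence read.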

[17] = biological target: Bile acid receptor (Homo sapiens) (UniProt Q96RI1); assay: qHTS assay to identify small molecule agonists of the farnesoid-X-receptor (FXR) signaling pathway (AID 743220; active means well fitted activation curve with a large enough effect in the signal ratio in the repeat runs, not every such curve was filed as active; inconclusive means weak or mixed curves, or effect the other way; the % refers to the signal ratio; further: potency means the concentration at half of the fitted maximal effect); conditions: HEK293T FXR-UAS-bla, beta-lactamase FRET ratio, 16 h; activation: at 62.6 µM (top of the series) unless noted
Summary of the method: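 Beta-lactamase reporter under UAS control in GeneBLAzer FXR HEK 293T cells (5000/well) measured with LiveBLAzer FRET substrate after 2 h at room temperature. Compound exposure lasted 16 h at 37C.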

[18] = qHTS assay to identify small molecule antagonists of the farnesoid-X-receptor (FXR) signaling pathway - cell viability counter screen (AID 743221; active means well fitted cell-killing curve with a large enough effect in the repeat runs, not every such curve was filed as active; inconclusive means weak or mixed curves, or effect the other way; inactive means no such curve, though single readings can be large or run the other way; further: potency means the concentration at half of the fitted maximal effect; nearly all actives have a fitted effect of over 50% in size); conditions: FXR-bla HEK293T viability, CellTiter-Glo luminescence, 16 h; activity change, negative = cytotoxicity: at 62.6 µM (top of the series) unless noted
Summary of the method: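 HEK 293T FXR-bla cells, 5 h pre-incubation; compound + CDCA 50 uM final, 16 h, 37 C; beta-lactamase FRET read first, then CellTiter-Glo luminescence, 30 min RT.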
Tags describe the fitted curve by direction and shape or compound fluorescence and quenching.

Chain of UniProt P37231 (P37231 whole entry, looked up): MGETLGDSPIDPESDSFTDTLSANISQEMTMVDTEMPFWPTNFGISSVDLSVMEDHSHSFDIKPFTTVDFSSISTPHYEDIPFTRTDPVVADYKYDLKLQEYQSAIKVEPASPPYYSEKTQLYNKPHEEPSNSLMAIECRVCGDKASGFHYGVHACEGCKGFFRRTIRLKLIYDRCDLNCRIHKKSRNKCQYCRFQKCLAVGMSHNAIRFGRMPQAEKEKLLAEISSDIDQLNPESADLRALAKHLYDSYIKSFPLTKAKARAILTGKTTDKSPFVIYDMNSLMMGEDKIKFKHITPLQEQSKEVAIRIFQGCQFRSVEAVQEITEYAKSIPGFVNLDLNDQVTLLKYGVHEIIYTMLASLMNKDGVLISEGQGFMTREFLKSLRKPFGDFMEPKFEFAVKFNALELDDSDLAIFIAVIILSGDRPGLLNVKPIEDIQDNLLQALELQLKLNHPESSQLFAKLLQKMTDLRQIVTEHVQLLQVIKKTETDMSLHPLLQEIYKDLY
Chain of UniProt P11473 (P11473 whole entry, looked up): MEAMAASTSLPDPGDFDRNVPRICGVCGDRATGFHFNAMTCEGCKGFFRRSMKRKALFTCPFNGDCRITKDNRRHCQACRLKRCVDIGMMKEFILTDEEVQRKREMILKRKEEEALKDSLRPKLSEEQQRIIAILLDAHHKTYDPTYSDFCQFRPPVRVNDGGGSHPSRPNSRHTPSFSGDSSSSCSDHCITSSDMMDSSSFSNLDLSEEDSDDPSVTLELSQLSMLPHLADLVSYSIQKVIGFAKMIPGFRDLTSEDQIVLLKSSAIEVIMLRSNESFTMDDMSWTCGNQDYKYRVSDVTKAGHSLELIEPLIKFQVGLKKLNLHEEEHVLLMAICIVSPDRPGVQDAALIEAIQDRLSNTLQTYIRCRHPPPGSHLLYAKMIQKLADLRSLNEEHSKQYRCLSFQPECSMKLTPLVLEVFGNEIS
Chain of UniProt Q03181 (Q03181 whole entry, looked up): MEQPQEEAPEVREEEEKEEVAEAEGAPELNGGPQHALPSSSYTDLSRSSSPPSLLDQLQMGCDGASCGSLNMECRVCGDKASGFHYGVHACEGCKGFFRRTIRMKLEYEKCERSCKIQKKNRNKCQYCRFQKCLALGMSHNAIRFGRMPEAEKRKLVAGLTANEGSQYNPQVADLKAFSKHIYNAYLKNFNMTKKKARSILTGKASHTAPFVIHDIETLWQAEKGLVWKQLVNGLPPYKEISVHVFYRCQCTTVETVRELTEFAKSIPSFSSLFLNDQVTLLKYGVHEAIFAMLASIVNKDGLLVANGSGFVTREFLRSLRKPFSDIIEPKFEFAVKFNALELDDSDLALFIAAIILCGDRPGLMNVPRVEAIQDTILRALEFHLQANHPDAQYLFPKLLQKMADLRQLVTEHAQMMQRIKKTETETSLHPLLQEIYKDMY
Chain of UniProt Q96RI1 (Q96RI1 whole entry, looked up): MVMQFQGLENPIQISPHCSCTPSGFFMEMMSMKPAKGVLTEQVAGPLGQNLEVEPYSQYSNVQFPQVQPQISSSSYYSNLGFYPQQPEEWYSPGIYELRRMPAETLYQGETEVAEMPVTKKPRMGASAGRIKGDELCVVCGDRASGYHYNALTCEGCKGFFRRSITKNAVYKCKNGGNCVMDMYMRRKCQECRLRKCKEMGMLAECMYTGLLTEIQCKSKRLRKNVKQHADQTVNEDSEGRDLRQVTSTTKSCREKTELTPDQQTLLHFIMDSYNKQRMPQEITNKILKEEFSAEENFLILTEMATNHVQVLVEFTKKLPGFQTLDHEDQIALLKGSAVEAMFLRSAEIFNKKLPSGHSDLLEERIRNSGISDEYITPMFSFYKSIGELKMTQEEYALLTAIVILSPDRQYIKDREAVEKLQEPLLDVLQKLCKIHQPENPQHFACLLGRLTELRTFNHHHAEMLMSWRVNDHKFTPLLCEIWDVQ

CSC(=O)c1c(C(F)F)nc(C(F)(F)F)c(C(=O)SC)c1CC(C)C
inactive: Potency [2] | Potency [10]
inconclusive: ratio activity, negative = inhibition [1] 6.98% | Potency [3] 68.2 µM [cytotoxic, single point] | Potency [4] 61.3 µM [cytotoxic, single point] | Potency [5] 61.3 µM [cytotoxic, single point] | Potency [6] 61.3 µM [rising, partial curve, poor fit] | Potency [7] 61.3 µM [single point] | Potency [9] 54.6 µM [cytotoxic, single point]
active: Potency [8] 43.4 µM

Cn1cc(-c2ccccc2)c(=O)c(-c2cccc(C(F)(F)F)c2)c1
inactive: Potency [5] | Potency [10]
inconclusive: ratio activity, negative = inhibition [1] -24.2% | Potency [11] 0.038 µM [rising, full curve] | Potency [12] 0.24 µM [rising, full curve]

Oc1c(Cl)c(Cl)cc(Cl)c1Cl
inactive: Potency [15]
active: Potency [1] 3.78 µM
inconclusive: Potency [2] 18.8 µM [rising, partial curve] | Potency [3] 47.2 µM [cytotoxic, partial curve] | Potency [13] 60 µM [falling, partial curve, poor fit] | Potency [4] 5.34 µM [cytotoxic] | Potency [14] 47.6 µM [rising, single point] | Potency [5] 6.73 µM [cytotoxic] | activity change, negative = inhibition [16] -27.3% [at 81.1 µM] | Potency [12] 4.76 µM [cytotoxic, partial curve, poor fit] | Potency [17] 21.3 µM [fluorescent, partial curve, poor fit] | Potency [18] 6 µM | Potency [8] 60 µM [cytotoxic, single point] | Potency [9] 13.4 µM [cytotoxic, partial curve] | Potency [10] 37.8 µM [falling, partial curve]

O=C(C(Cl)(Cl)Cl)C(Cl)(Cl)Cl
inconclusive: ratio activity, negative = inhibition [1] 4.03% [at 81.1 µM] | Potency [11] 0.63 µM [rising, partial curve, poor fit] | activation [10] -2.76% [at 78.8 µM]
inactive: Potency [6]
